From PubChem BioAssay AID504332 (National Center for Advancing Translational Sciences (NCATS), 2011)
The whole screen tested about 350,000 compounds, of which about 31,000 (8.9%) were called active. The inconclusive results got no clear call from the source; some entries with a clear call stand among them for comparison. Calls come from the whole dose curve; as a rule, active = well fitted inhibition curve with a large enough effect; inconclusive = small, poorly fitted or top-dose-only effect; inactive = no such curve, though single readings can be large or run the other way. Potencies of inconclusive entries are doubtful fits and often do not repeat.

Biological target: Histone-lysine N-methyltransferase EHMT2 (Homo sapiens) (UniProt Q96KQ7)
Assay: qHTS Assay for Inhibitors of Histone Lysine Methyltransferase G9a; note: nearly all actives have a fitted effect of over 75% in size
Conditions: G9a H3K9 monomethylation, AlphaScreen, 2 h; activity, negative = inhibition: at 59 µM (top of the series) unless noted
Method in brief: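 Using a bead-based AlphaScreen, monomethylated H3K9 product from 2 h room-temperature reactions (G9a 20 nM, peptide 500 nM, SAM 20 uM) was detected with 0.5 ug/mL rabbit anti-H3K9me1 antibody.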
% is set by controls: 0 for no effect and ±100 for the full control effect; potency is the fitted concentration of half-maximal effect; tags give direction and shape of the fitted curve.

Sequence of UniProt Q96KQ7 (Q96KQ7 whole entry, looked up): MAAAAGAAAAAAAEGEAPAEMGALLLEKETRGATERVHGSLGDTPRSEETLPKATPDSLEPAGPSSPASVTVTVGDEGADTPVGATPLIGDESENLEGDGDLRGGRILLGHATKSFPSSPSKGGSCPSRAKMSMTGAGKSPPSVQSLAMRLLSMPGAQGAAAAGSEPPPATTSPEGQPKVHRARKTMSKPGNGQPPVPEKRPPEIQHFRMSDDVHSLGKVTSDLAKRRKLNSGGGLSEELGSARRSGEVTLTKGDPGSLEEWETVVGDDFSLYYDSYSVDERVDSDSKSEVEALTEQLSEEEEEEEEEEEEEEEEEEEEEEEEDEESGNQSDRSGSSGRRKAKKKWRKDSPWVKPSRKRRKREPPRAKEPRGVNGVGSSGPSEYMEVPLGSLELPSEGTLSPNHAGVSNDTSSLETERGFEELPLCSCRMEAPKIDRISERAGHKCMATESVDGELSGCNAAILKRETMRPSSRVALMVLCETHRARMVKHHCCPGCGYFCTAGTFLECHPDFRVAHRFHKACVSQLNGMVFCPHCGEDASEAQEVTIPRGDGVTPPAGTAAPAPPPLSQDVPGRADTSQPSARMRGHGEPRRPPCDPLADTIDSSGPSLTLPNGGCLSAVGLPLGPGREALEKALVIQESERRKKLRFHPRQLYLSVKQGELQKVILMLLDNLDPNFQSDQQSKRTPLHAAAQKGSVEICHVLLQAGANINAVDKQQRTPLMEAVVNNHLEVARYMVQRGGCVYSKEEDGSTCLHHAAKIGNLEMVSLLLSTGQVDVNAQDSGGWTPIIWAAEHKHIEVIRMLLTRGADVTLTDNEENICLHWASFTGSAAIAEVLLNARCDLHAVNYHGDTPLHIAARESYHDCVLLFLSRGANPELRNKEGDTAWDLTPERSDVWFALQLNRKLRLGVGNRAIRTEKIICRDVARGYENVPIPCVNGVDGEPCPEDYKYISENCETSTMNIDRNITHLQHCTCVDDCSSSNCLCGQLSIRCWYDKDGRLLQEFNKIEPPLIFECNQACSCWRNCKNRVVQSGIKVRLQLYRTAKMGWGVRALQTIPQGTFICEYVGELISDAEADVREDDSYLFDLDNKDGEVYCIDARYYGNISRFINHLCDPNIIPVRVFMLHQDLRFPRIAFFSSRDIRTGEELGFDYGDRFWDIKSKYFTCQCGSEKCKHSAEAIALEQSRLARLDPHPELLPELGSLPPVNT

Compound | Potency | activity, negative = inhibition
CCn1c(/N=C/c2c[nH]c3ccccc23)nc2ccccc21 | inconclusive: 70.8 µM [inhibitor, single point] | 
COc1cccc(C(=O)NCc2cn3ccsc3n2)c1 | inconclusive: 89.1 µM [inhibitor, partial curve, poor fit] | 
COc1ccc(CCN(C)C(=O)C2CCN(Cc3ccccc3)CC2)cc1OC | inactive | 
Cc1cc(C(=O)COc2cccc3cccnc23)c(C)n1C | active: 2.82 µM | 
O=C(NN=C1CCCC1)c1ccc(Cl)cc1 | inactive | 
NC(=O)c1cc(S(=O)(=O)N2CCOCC2)ccc1Sc1ccccc1N |  | inactive: -6.58% [at 0.501 µM]
O=C(NCCc1ccccc1)C(c1cccs1)N(C(=O)CCl)c1ccc(Cl)cc1 (stereo not given) | inconclusive: 79.4 µM [inhibitor, single point] | 
Fc1ccccc1-c1nc(N2CCN(c3cccc(Cl)c3)CC2)c2ccccc2n1 | inactive | 
NS(=O)(=O)c1ccc(CNc2ncnc3sccc23)cc1 | inconclusive: 89.1 µM [inhibitor, single point] | 
O=C1NC2=C(C(=O)CCC2)C(c2ccccc2[N+](=O)[O-])N1 (stereo not given) | inconclusive: 89.1 µM [inhibitor, single point] | 
CCC(=O)Nc1c(S(=O)(=O)c2ccccc2)c2nc3ccccc3nc2n1C(C)c1ccccc1 (stereo not given) | inconclusive: 89.1 µM [inhibitor, single point] | 
Cc1ccc(C(=O)Nc2nc(-c3ccccn3)cs2)cc1S(=O)(=O)N1CCOCC1 | inconclusive: 2.24 µM [inhibitor, full curve, poor fit] | 
COc1cccc(-c2nn(-c3ccccc3)cc2C(=O)Nc2nccs2)c1 |  | inactive: -3.55% [at 12.7 µM]
COc1cc(C)nc(Nc2nc(C)c(C(C)=O)s2)n1 | inactive | 
Fc1ccc(-c2csc(NC3=NCCC3)n2)cc1 | inconclusive: 39.8 µM [inhibitor, partial curve, poor fit] | 
O=C(CC(CC(=O)c1ccccc1)C(=O)O)c1ccccc1 | inconclusive: 39.8 µM [inhibitor, single point] | 
Cc1ccc(-n2ncc3c(Nc4cccc(Cl)c4)ncnc32)c(C)c1 | inactive | 
O=C(Nc1ccccc1N1CCCCC1)C1CCN(C(=O)c2ccc(Cl)cc2)CC1 | inconclusive: 79.4 µM [inhibitor, partial curve, poor fit] | 
CC12CCC(=O)N1C(C(=O)Nc1cc(Cl)ccc1N1CCCC1)CS2 (stereo not given) | inconclusive: 35.5 µM [inhibitor, single point] | 
Cc1ccc(S(=O)(=O)CCC(=O)Nc2nnc(-c3ccccc3S(C)(=O)=O)o2)cc1 | inconclusive: 7.94 µM [inhibitor, full curve] | 
Cc1cccc(Cl)c1OCCN1CCCC1 | active: 39.8 µM | 
CCOC(=O)c1c(C)n(-c2ccc(OC)cc2)c2ccc(OC(=O)COc3ccccc3)cc12 | inactive | 
COc1ccc(CN2C(=O)c3cccnc3C2=O)cc1S(=O)(=O)N1CCCC(C)C1 (stereo not given) | inactive | 
CC1CCCCN1C(=S)NC(=O)c1cccs1 (stereo not given) |  | inconclusive: -95.9% [inhibitor]

Compound | Potency | activity, negative = inhibition
Cc1cc(C)c2ccc(=S)[nH]c2n1 | active: 8.91 µM | 
COc1ccc(C(CNC(=S)NCc2ccccc2)N2CCCC2)cc1 (stereo not given) | inconclusive: 39.8 µM [inhibitor, partial curve, poor fit] | 
COC(=O)C1CCN(S(=O)(=O)c2c(C)n(C)c(=O)n(C)c2=O)CC1 | inconclusive: 20 µM [inhibitor, partial curve, poor fit] | 
O=C(C1CC=CCC1)N1CCN(C(=O)C2CC=CCC2)CC1 (stereo not given) | inactive | 
Nc1ccc(N2CCCCCC2)cc1 | active: 3.55 µM | 
CCc1nnc(NS(=O)(=O)c2ccc(NC(=O)/C=C/c3ccccc3Cl)cc2)s1 | inconclusive: 56.2 µM [inhibitor, single point] | 
COc1cc(/C=N/NC(=S)Nc2cccc(Cl)c2C)ccc1OCC(=O)N1CC(C)OC(C)C1 (stereo not given) | inconclusive: 20 µM [inhibitor, single point] | 
CCN(CC)c1cc(C)c2cc(NC(=O)/C=C/c3cc(OC)c(OC)c(OC)c3)ccc2n1 | inconclusive: 20 µM [inhibitor, partial curve, poor fit] | 
COC(=O)C1=CN(c2ccc(F)cc2)C=C(C(=O)OC)C1c1cccc([N+](=O)[O-])c1 | inconclusive: 39.8 µM [inhibitor, partial curve] | 
O=C(O)c1cccc(NS(=O)(=O)c2ccc3c4c(cccc24)C(=O)N3)c1 | inconclusive: 79.4 µM [inhibitor, partial curve, poor fit] | 
COc1cc(NC(=O)C2=CC(c3ccc(F)cc3)=NS(=O)(=O)N2C)cc(OC)c1OC | inactive | 
CC1=NN(c2ccccc2)C(=O)C1N=Nc1ccc(C)cc1 (stereo not given) | inconclusive: 50.1 µM [inhibitor, partial curve] | 
Cc1ccc(C)c(NCc2ccccc2CO)c1 | inconclusive: 44.7 µM [inhibitor, partial curve, poor fit] | 
CCCCCCC(=O)Nc1c(O)c2ccccc2[nH]c1=O | inconclusive: 3.55 µM [inhibitor, partial curve, poor fit] | 
COc1cccc(C(=O)Nc2ccccc2C(=O)OCc2cc(=O)n3c4c(sc3n2)CCCC4)c1 | inactive | 
CC1CCCN(S(=O)(=O)CCNC(=O)c2ccccc2)C1 (stereo not given) | inconclusive: 50.1 µM [inhibitor, partial curve, poor fit] | 
COc1cccc2sc(N(CCN(C)C)C(=O)c3ccc(S(=O)(=O)N4CCCC4)cc3)nc12 | inactive | 
O=C(O)c1nccnc1C(=O)NCCc1c[nH]c2ccccc12 | inconclusive: 63.1 µM [inhibitor, partial curve, poor fit] | 
CCCn1c(Nc2ccc(Cl)cc2)nc2ccccc21 | inconclusive: 89.1 µM [inhibitor, partial curve, poor fit] | 
Cc1cccc(CC(=O)N2CC(=O)Nc3ccc(Br)cc3C2c2ccc(F)cc2)c1 (stereo not given) | inconclusive: 25.1 µM [inhibitor, partial curve, poor fit] | 
CCc1cccc(-n2nnc(-c3nsc(NC(=O)c4cccc(OC)c4)n3)c2C)c1 | inactive | 
CN(Cc1ccccc1)C(=O)c1ccc(CSc2nc3cccnc3n2Cc2ccccc2F)cc1 | active: 4.47 µM | 
O=C(c1ccc(F)cc1)N1CCCCC(S(=O)(=O)c2ccccc2)C1=O (stereo not given) | inconclusive: 39.8 µM [inhibitor, single point] | 
Cc1ccc2[nH]c(O)c(N=NC(N)=S)c2c1 | inactive | 

Compound | Potency | activity, negative = inhibition
CCN(CC)C(=O)c1sc(NC(=O)Cc2cccs2)c(C#N)c1C | inactive | 
CCOc1ccc(CCNC(=O)c2cn(-c3ccc(OC)cc3)c(=O)c3ccccc23)cc1OCC | inactive | 
Cc1ccc(C2C=C(c3ccccc3)Nc3nc(NS(=O)(=O)c4ccccc4)nn32)cc1 (stereo not given) | active: 14.1 µM | 
CCOC(=O)CSc1nnc(-c2ccc(NS(=O)(=O)c3ccc(C)cc3)cc2)o1 | inactive | 
CCOc1cc(C2NC(=O)c3c(sc4c3CCN(C)C4)N2)ccc1OC(=O)c1ccc(Br)cc1 (stereo not given) | inactive | 
C#CCOCCOCCOCCNc1nc(N2CCN(C(=O)[C@H](CCC(=O)O)n3cc(C(N)CC(C)C)nn3)CC2)nc(N2CCN(C(=O)[C@H](Cc3cc4ccccc4[nH]3)n3cc(C(N)[C@H](C)CC)nn3)CC2)n1 (stereo not given in full) |  | inconclusive: -90.3% [inhibitor]
CC1CCC(C(C)C)C(=O)C1 (stereo not given) | inactive | 
C/C(CC(=O)Nc1cc(C)ccn1)=N\NC(=O)c1ccc(C(C)(C)C)cc1 | inactive | 
O=C1C[C@@H](c2ccc(O)cc2)Oc2cc(O)cc(O)c21 | inactive | 
COc1cc(C(=S)N2CCOCC2)cc(OC)c1OC(=O)c1ccc([N+](=O)[O-])cc1[N+](=O)[O-] | inconclusive: 50.1 µM [inhibitor, partial curve, poor fit] | 
CC1Cc2ccccc2N1CC(=O)Nc1ccc(S(=O)(=O)N(C)C)cc1 (stereo not given) |  | inconclusive: -80% [inhibitor]
CCCCN(C(=O)C(C)Oc1ccc(Br)cc1)c1c(N)n(CC(C)C)c(=O)[nH]c1=O (stereo not given) | inconclusive: 7.94 µM [inhibitor, single point] | 
CC(=O)Nc1ccc(S(=O)(=O)Nc2nc(CN3CCOCC3)nc3sc4c(c23)CCCC4)cc1 | inconclusive: 22.4 µM [inhibitor, single point] | 
CC(=O)C1=C(O)C(=O)N(Cc2ccccc2)C1c1ccc([N+](=O)[O-])cc1 (stereo not given) | inconclusive: 79.4 µM [inhibitor, single point] | 
CCCCn1c(=O)[nH]c(=O)c2c1nc(-c1ccc(-c3ccccc3)cc1)n2C | active: 39.8 µM | 
CC(OC(=O)c1cccc(S(=O)(=O)N2CCCC2)c1)C(=O)NC1CCCCC1C (stereo not given) | inconclusive: 12.6 µM [inhibitor, partial curve, poor fit] | 
CCCNC(=O)c1ccc(N2CCC3(CC2)CC(c2ccccc2)=NO3)c(NC(=O)c2cccc(OC)c2)c1 | active: 44.7 µM | 
COc1ccc(NC2=CC(c3ccc(OC)c(OC)c3)N(c3ccc(OC)cc3)C2=O)cc1 (stereo not given) | active: 39.8 µM | 
NS(=O)(=O)c1ccc(NC(=O)CSc2nnc(-c3ccc(O)cc3)o2)cc1 | inconclusive: 89.1 µM [inhibitor, single point] | 
COc1ccc(Cl)cc1NC(=S)N1CCN(c2ccccn2)CC1 | inconclusive: 50.1 µM [inhibitor, partial curve, poor fit] | 
COc1ccc(C)cc1NC(=O)c1cc2c(=O)n3cccc(C)c3nc2s1 | inactive | 
CCCCn1c(N)c(N(CCC(C)C)C(=O)CC2OC(=O)c3ccccc32)c(=O)[nH]c1=O (stereo not given) | inconclusive: 70.8 µM [inhibitor, partial curve, poor fit] | 
